About 6,500 (4.3%) of roughly 150,000 compounds were called active. This list was built around the results that the source calls inconclusive (neither active nor inactive); the mix of calls is not that of the screen. Calls come from the whole dose curve; as a rule, active = well fitted inhibition curve with a large enough effect (not every such curve was filed as active); inconclusive = small, poorly fitted or top-dose-only effect, or another doubt; inactive = no such curve, though single readings can be large or run the other way. Potencies of inconclusive entries are left out as doubtful fits.
Target: 15-hydroxyprostaglandin dehydrogenase [NAD(+)] (Homo sapiens) (UniProt P15428)
Sequence of UniProt P15428 (P15428 whole entry, looked up): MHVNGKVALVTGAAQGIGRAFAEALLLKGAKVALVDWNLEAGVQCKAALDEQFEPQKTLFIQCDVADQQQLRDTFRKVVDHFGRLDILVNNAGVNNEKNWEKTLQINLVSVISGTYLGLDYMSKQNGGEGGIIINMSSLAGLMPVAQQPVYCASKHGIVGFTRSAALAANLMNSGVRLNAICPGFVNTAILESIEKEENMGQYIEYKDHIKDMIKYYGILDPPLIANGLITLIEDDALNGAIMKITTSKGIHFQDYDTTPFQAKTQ
Experiment: qHTS Assay for Inhibitors of HPGD (15-Hydroxyprostaglandin Dehydrogenase)
Conditions: purified HPGD, NADH fluorescence kinetic, PGE2 substrate; activity change, negative = inhibition: hits give low values
Outline: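 NADH formation kinetics: reaction with 30 uM PGE2 and 1 mM NAD+ (final), 20 nM enzyme, Tris-HCl pH 8 with Tween 20, after 15 min compound preincubation at room temperature. Fluorescence change, last versus first of five reads.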
% is set by controls: 0 for no effect and ±100 for the full control effect; potency is the fitted concentration of half-maximal effect; tags give direction and shape of the fitted curve.

Row | SMILES | activity change, negative = inhibition | Potency
1 | CCC(=O)N1CCN(c2ccccc2NC(=O)Cc2ccc(Cl)cc2)CC1 | inactive: -11.7% | 
2 | CCc1c(C#N)c(N)nc(SCC(=O)OCc2ccccc2)c1C#N |  | inconclusive [inhibitor, single point]
3 | Cc1ccc(C2=NN(C)c3nc4ccccc4n3C2)cc1 |  | inconclusive [inhibitor, partial curve]
4 | COc1ccc(OC)c(CCNC(=O)Cn2sc3nc(C)cc(C)c3c2=O)c1 |  | active: 1.41 µM
5 | COC(=O)CC1Oc2cc3oc4c(c3cc2O1)C(=O)CC(C)(C)C4 (centres undefined) |  | active: 25.1 µM
6 | CCS(=O)(=O)c1ccc(-c2csc(-c3ccccc3)n2)c(Cl)c1Cl |  | inconclusive [inhibitor, partial curve]
7 | c1ccc(-c2csc3ncnc(-n4cnc5ccccc54)c23)cc1 |  | inconclusive [inhibitor, single point]
8 | COC(=O)Nc1nc2ccc(-c3n[nH]c(=O)c4ccccc34)cc2[nH]1 |  | inconclusive [inhibitor, partial curve, poor fit]
9 | COc1ccc(NC(=O)CSc2nc3ccccc3c3nc4ccccc4n23)cc1 | inactive: -25% | 
10 | CCOc1ccc(NC(=O)C2=C(C)NC(=S)NC2c2ccc(O)c(OC)c2)cc1 (centres undefined) | inactive: 0.746% | 
11 | Cc1ccc2c(CN3C(=O)NC(C)(c4ccc5c(c4)OCO5)C3=O)cc(=O)oc2c1 (centres undefined) |  | inconclusive [inhibitor, partial curve]
12 | CC(=O)c1cccc(NC(=S)NC(=O)c2ccc(Cl)cc2)c1 | inactive: -20.6% | 
13 | Cc1ccc(C(C)C)c(OCC(=O)Nc2ccc3c(c2)nc(CN2CCCC2)n3C)c1 |  | inconclusive [inhibitor, partial curve]
14 | CCOC(=O)c1c(-c2cccs2)csc1NC(=O)c1ccco1 |  | inconclusive [inhibitor, partial curve]
15 | Clc1ccc(-c2c[n+](Cc3ccc(Cl)c(Cl)c3)c3n2CCC3)cc1 | inactive: 5.59% | 
16 | COc1ccc(-c2cc(C(=O)OCC(=O)Nc3cc(C)on3)c3ccccc3n2)cc1OC |  | inconclusive [inhibitor, partial curve]
17 | CCOc1cc(/C=N/O)cc(Br)c1OCC(=O)NCc1ccccc1 |  | active: 17.8 µM
18 | CC1(C)Cc2nc3sc4c(=O)[nH]cnc4c3cc2CS1 |  | inconclusive [inhibitor, partial curve]
19 | C=CCNc1oc(/C=C/c2ccccc2)nc1C#N |  | inconclusive [inhibitor, partial curve]
20 | COc1ccc(OC)c(-c2cc(C(F)(F)F)c3c(n2)sc2c(O)cc(=O)[nH]c23)c1 |  | inconclusive [inhibitor, partial curve]
21 | O=S(=O)(Nc1ccc2c(c1)OCCO2)c1cccs1 |  | active: 14.1 µM
22 | Cc1ccc(-c2cc(-c3ccc(C)o3)nc(N)c2C#N)cc1 |  | inconclusive [inhibitor, partial curve]
23 | Cc1ccc([N+](=O)[O-])cc1NC(=S)NC(=O)c1cccs1 | inactive: -15.5% | 
24 | CCCCNC(=O)Nc1nnc(-c2ccccc2)o1 |  | inconclusive [inhibitor, partial curve]
25 | COn1c(C)c(C(C)=O)c2c3nonc3ccc21 | inactive: -25.2% | 

Row | SMILES | activity change, negative = inhibition | Potency
26 | Cc1ccc(C)c(SCC(=O)OCC(=O)c2ccco2)c1 |  | active: 17.8 µM
27 | COc1cc(OC)c(NC(=S)Nc2cc(Cl)cc(Cl)c2)cc1Cl |  | inconclusive [inhibitor, single point]
28 | COc1ccc(CCN(Cc2nc3ccccc3c(=O)[nH]2)C(=O)c2ccco2)cc1OC |  | inconclusive [inhibitor, single point]
29 | Cc1cc(C)cc(OCC(=O)Nc2ccc3c4c(cccc24)CC3)c1 | inactive: -12.3% | 
30 | CCOC(=O)c1sc(N(Cc2ccccc2)C(=O)COC(=O)c2ccc(O)cc2)nc1C |  | inconclusive [inhibitor, partial curve]
31 | Cc1ccccc1N1Cc2ccccc2C1 |  | inconclusive [inhibitor, partial curve]
32 | CSc1ccccc1NC(=O)c1ccc(Cl)s1 |  | active: 20 µM
33 | CCn1c(=O)c([N+](=O)[O-])c(NCCc2ccccc2)c2ccccc21 |  | active: 15.8 µM
34 | Nn1c(Cc2cccc3ccccc23)nnc1SCc1ccccc1 |  | active: 12.6 µM
35 | CSc1nc(-c2ccccc2)[nH]c(=S)c1C(C)=O | inactive: -8.8% | 
36 | COc1ccc2c(COC(=O)c3n[nH]c4ccccc34)cc(=O)oc2c1 |  | inconclusive [inhibitor, full curve]
37 | Cc1cc(=O)[nH]c(N=N/C(=N/Nc2ccc(O)cc2)c2ccccc2)n1 |  | active: 31.6 µM
38 | O=C(O)CCC(=O)NCc1ccc2[nH]c3c(c2c1)CCCC3 |  | inconclusive [inhibitor, partial curve]
39 | CCOC(=O)NC(O)C(=O)c1cccs1 (centres undefined) | inactive: -13% | 
40 | COc1ccc(-c2[nH]ncc2-c2cnc(C)s2)c(O)c1 | inactive: -3.24% | 
41 | O=C(COC(=O)c1ccc2c(c1)OCO2)NCc1ccc(Cl)cc1 | inactive: -2.19% | 
42 | C/C(=N/S(=O)(=O)c1ccc(Cl)c(Cl)c1)OCC(C)(C)C | inactive: -5.87% | 
43 | C=CCNC(=O)/C(C#N)=C/c1ccccc1OCc1ccc(C(=O)OC)cc1 |  | inconclusive [inhibitor, single point]
44 | CCCCOC(=O)c1cc2c(cn1)[nH]c1ccccc12 |  | inconclusive [inhibitor, partial curve]
45 | O=C(O)c1cc2cc(OCc3ccccc3)ccc2[nH]1 |  | inconclusive [inhibitor, partial curve]
46 | CSc1nc2ccc(NS(=O)(=O)c3ccc4c(c3)OCCO4)cc2s1 | inactive: -22.3% | 
47 | N#Cc1cnn2c(-c3ccccc3)ccnc12 |  | inconclusive [inhibitor, partial curve]
48 | Cc1c(C)c2cc(Cl)c(O)c(CN3CCN(C)CC3)c2oc1=O |  | inconclusive [inhibitor, partial curve]
49 | Cc1cc(C)cc(N2CCCn3c2nc2c3c(=O)n(CCN3CCOCC3)c(=O)n2C)c1 | inactive: 1.36% | 
50 | O=C(NC1=NCCS1)c1csc2ccccc12 |  | inconclusive [inhibitor, single point]

Row | SMILES | activity change, negative = inhibition | Potency
51 | N#C[C@@H](N=Nc1ccccc1C(=O)O)C(N)=O | inactive: -5.03% | 
52 | COc1cc2ccc([C@H](C)NCC#N)cc2cc1OC | inactive: -9% | 
53 | CCc1ccc(C2=NN(c3ccc(S(N)(=O)=O)cc3)C(c3ccc(F)cc3)C2)cc1 (centres undefined) |  | inconclusive [inhibitor, partial curve]
54 | COc1cc2c(cc1NC(=O)CSc1nnnn1-c1ccccc1)oc1ccccc12 |  | inconclusive [inhibitor, single point]
55 | O=c1c2sccc2nc(SCc2cc(=O)n3ccccc3n2)n1-c1ccc(Br)cc1 |  | inconclusive [inhibitor, single point]
56 | Cc1cc2nc3c(c(=O)n2[nH]1)CCCC3 |  | inconclusive [inhibitor, partial curve]
57 | COc1ccccc1-c1c(C#N)c(N)nc2c1CCc1ccccc1-2 |  | inconclusive [inhibitor, partial curve]
58 | Cc1ccc(N2C(=O)c3ccccc3C2Nc2cccnc2)nc1 (centres undefined) | inactive: -0.67% | 
59 | CCn1c(SCC(=O)NC(=O)Nc2ccc3c(c2)OCCO3)nnc1-c1cccs1 |  | inconclusive [inhibitor, partial curve, poor fit]
60 | C=CCOc1ccc(CNc2nccs2)cc1OC |  | inconclusive [inhibitor, partial curve]
61 | COc1ccc(Cl)cc1S(=O)(=O)N1CCN=C1C | inactive: -2.85% | 
62 | O=C(O)CCc1nn2c3ccccc3nc2n(CCN2CCCCC2)c1=O |  | inconclusive [inhibitor, partial curve]
63 | O=C(Nc1ccc2oc(-c3ccccc3)nc2c1)C1CCCO1 (centres undefined) |  | inconclusive [inhibitor, partial curve]
64 | Cc1cc(C)n2cc(CSCC(=O)O)nc2n1 |  | inconclusive [inhibitor, partial curve]
65 | COc1ccc2c(c1)-c1nc(/N=C/c3ccc(O)c(OC)c3)sc1CC2 | inactive: -26.1% | 
66 | COC(=O)c1ccc(C2C(Oc3ccccc3C)C(=O)N2CCc2ccc(OC)c(OC)c2)cc1 (centres undefined) |  | inconclusive [inhibitor, partial curve, poor fit]
67 | O=C(Nc1cccnc1)C1COc2ccccc2O1 (centres undefined) |  | inconclusive [inhibitor, partial curve]
68 | Cc1ccc(C2=NN(S(C)(=O)=O)C(c3cccs3)C2)cc1 (centres undefined) | inactive: -1.15% | 
69 | CC(OC(=O)c1cc2sccc2n1C)C(=O)NCc1cccs1 (centres undefined) |  | inconclusive [inhibitor, partial curve]
70 | CCOC(=O)Cc1cc(-c2ccc(OC)cc2)nc2ccc3ccccc3c12 |  | inconclusive [inhibitor, partial curve]
71 | COc1cccc([C@@H]2Oc3ccc(OC)cc3C(=O)[C@H]2OC(=O)NC2CCCC2)c1 | inactive: -6.23% | 
72 | CC(=O)N(CN1C(=O)CCC1=O)c1cccc(Cl)c1 | inactive: -7.33% | 
73 | Cc1nc(N2CCC(C)CC2)c2nnn(Cc3ccccc3)c2n1 | inactive: -27.6% | 
74 | CCOc1cccc2cc(C(=O)N3CCN(C/C=C/c4ccccc4)CC3)c(=O)oc12 | inactive: -21.3% | 

From PubChem BioAssay AID894 (National Center for Advancing Translational Sciences (NCATS), 2007)
